Inconclusive means that the source gave no clear call. Such entries were picked first, then a sample of the others. No potency is given beside an inconclusive call; the fits are too rough. Activity calls are given as the source filed them. Calls follow the shape of the dose curve; as a rule, active = well fitted curve in the direction sought with a large enough effect in the repeat runs; inconclusive = weak or mixed curves; inactive = no such curve, though single readings can be large; an effect the other way counts as inactive or inconclusive.
test system: not listed separately; assay: Caspase-3/7 induction in HepG2 cells by small molecules, qHTS cell viability counter screen (AID 1346981); conditions: CellTiter-Fluor fluorescence, 17 h; series mostly up to 92.4 µM; also: nearly all actives have a fitted effect of over 30% in size
How it was run: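 Fluorescence read-out of live-cell protease activity (CellTiter-Fluor) after 1 hr with reagent. This was measured in the same wells as the caspase-3/7 luminescence, on HepG2 cells exposed to DMSO-dissolved compounds for 16 hr at 37 C.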
Potency is read from the fitted curve at half-maximal effect; tags tell the direction and shape of the fitted curve.

Row | Compound | Potency
1 | CN(C)CCc1c[nH]c2ccc(CS(=O)(=O)N3CCCC3)cc12 | inactive
2 | CC(C)=CCl | inconclusive [rising, partial curve, poor fit]
3 | CCCCCCCCCCCCCCCCCC#N | inactive
4 | O=Cc1cc2ccccc2o1 | inconclusive [rising, partial curve]
5 | CC1=C(C/C=C(\C)CCC[C@H](C)CCC[C@H](C)CCCC(C)C)C(=O)c2ccccc2C1=O | inactive
6 | C=CC(C)C#N (stereo not drawn) | inconclusive [cytotoxic, single point]
7 | COC(=O)c1ccc(C=O)cc1 | inconclusive [rising, partial curve]

biological target: Nuclear receptor subfamily 1 group I member 2 (Homo sapiens) (UniProt O75469); assay: Human pregnane X receptor (PXR) small molecule agonists, qHTS assay (AID 1346982); conditions: PXR-Luc HepG2, CYP3A4 luciferase reporter, 24 h; series mostly up to 92.4 µM; also: nearly all actives have a fitted effect of over 35% in size
How it was run: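 HepG2 PXR-Luc reporter line, 5% charcoal-stripped FBS; 5 hr pre-incubation, compound (DMSO) 24 hr at 37 C/5% CO2; ONE-Glo 30 min RT; luminescence read-out.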

UniProt O75469, sequence (O75469 whole entry, looked up): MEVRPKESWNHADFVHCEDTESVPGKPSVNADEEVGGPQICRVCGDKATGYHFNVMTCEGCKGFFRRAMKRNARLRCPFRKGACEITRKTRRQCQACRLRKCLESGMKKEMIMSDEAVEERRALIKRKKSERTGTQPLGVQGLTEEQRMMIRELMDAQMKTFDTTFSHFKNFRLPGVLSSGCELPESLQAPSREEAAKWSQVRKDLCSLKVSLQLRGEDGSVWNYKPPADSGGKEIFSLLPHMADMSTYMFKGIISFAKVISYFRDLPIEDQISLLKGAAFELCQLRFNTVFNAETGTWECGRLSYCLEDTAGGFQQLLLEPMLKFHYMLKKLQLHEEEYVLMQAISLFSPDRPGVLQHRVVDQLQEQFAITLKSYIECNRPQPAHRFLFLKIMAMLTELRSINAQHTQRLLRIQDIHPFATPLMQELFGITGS

Row | Compound | Potency
8 | O=C1Nc2ccccc2C1=O | inactive
9 | C=CC(C)C#N (stereo not drawn) | inactive
10 | Cc1ccc(O)c(C(=O)c2ccccc2)c1 | inconclusive [activator, partial curve, poor fit]
11 | Clc1ccc2c(c1)Nc1ccccc1S2 | active: 33.5 µM
12 | C=CC(C)(O)CC/C=C(\C)CC (stereo not drawn) | inconclusive [activator, partial curve, poor fit]
13 | Nc1ccc(C(=O)N2CC3CC(CN(Cc4ccccc4)C3)C2)cc1 | inactive

From PubChem BioAssay (Tox21)
